# In PubChem BioAssay AID652106 (National Center for Advancing Translational Sciences (NCATS), 2013):
# The whole screen tested about 370,000 compounds, of which about 500 (0.14%) were called active. The shares of active, inactive and inconclusive entries below differ from those in the screen. The call rests on the fitted dose curve; in most records, active means well fitted activation curve with a large enough effect; inconclusive means small, poorly fitted or top-dose-only effect; inactive means no such curve, though single readings can be large or run the other way. No potency is given beside an inconclusive call; the fits are too rough.
# Assay: qHTS of alpha-syn Inhibitors; further: nearly all actives have a fitted effect of over 65% in size
# Conditions: Yeast expressing alpha-synuclein, BacTiter-Glo, 24 h; Potency: growth rescue unless noted; series mostly up to 46.1 µM
# Method in brief: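 Screening used galactose-induced yeast with toxic alpha-synuclein levels, exposed to compound for 24 hr at 30 deg C. Cell growth, read with BacTiter-Glo luminescence, gave the measured signal.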
# Potency means the concentration at half of the fitted maximal effect; tags describe the fitted curve by direction and shape.
row,Structure (SMILES),Potency
1,Cc1ccc(C)c(-c2nnc(NC(=O)COc3ccccc3)o2)c1,active: 11.2 µM
2,Cc1ccc(-c2ccc(=O)n(CC(=O)Nc3cccc(C(=O)N4CCN(C)CC4)c3)n2)cc1,"inconclusive [activator, single point]"
3,O=[N+]([O-])c1ccc(Oc2ccc(F)cc2)c2ccncc12,inactive
4,CCc1ccc2[nH]c(=O)c(CN(Cc3ccccc3OC)Cc3nnnn3Cc3ccco3)cc2c1,inactive
5,COc1cccc(N2CCN(C(=O)CCSCc3ccccc3F)CC2)c1,inactive
6,CC(Cc1cccs1)N(Cc1ccc(Cl)cc1)C(=O)c1ccncc1 (stereo not given),"inconclusive [activator, single point]"
7,COc1ccc(N(C(=O)c2ccncc2)S(=O)(=O)c2ccccc2)cc1,"inconclusive [activator, full curve]"
8,Cc1cccc(C)c1NC(=O)C(C1CC1)n1c(=O)c(-c2ccccc2)nc2ccccc21 (stereo not given),"inconclusive [activator, single point]"
9,O=C(COC(=O)c1cc(S(=O)(=O)NCc2ccccc2)ccc1O)c1cc2ccccc2o1,"inconclusive [activator, single point]"
10,O=C1[C@H]2[C@@H](c3ccc(C(F)(F)F)cc3)N[C@]3(CCCN(Cc4ccc(Cl)cc4)C3=O)[C@H]2C(=O)N1Cc1ccccc1,"inconclusive [activator, single point]"
11,Cc1cccc(Oc2nc(-c3ccncc3)nc3ccccc23)c1,"inconclusive [activator, single point]"
12,Cc1cn(-c2cc(C(=O)Nc3ccc(C)c(NC(=O)N4CCNC4=O)c3)cc(C(F)(F)F)c2)cn1,"inconclusive [activator, single point]"
13,COc1ccc(CC(=O)N2CCN(S(=O)(=O)c3cc(Cl)ccc3Cl)CC2)cc1,"inconclusive [activator, partial curve]"
14,COCCN1C(=O)N[C@@H](c2cccs2)C(C(=O)OC)=C1C,"inconclusive [activator, single point]"
15,Oc1ccc(NC(=S)Nc2ccc(O)cc2)cc1,inactive
16,CCN(CC)C(=O)C1=C(C)N(Cc2ccc(OC)cc2)C(=O)C(CC(=O)NCc2cccc3ccccc23)C1 (stereo not given),"inconclusive [activator, single point]"
17,Cn1cc(-c2coc3c(C(=O)Nc4ccccc4)cccc23)cn1,"inconclusive [activator, single point]"
18,CC(=O)N1CCN(c2nc(-c3cccs3)nc3ccccc23)CC1,inactive
19,Nc1ncc(Br)cc1S(=O)(=O)N1CCCCCC1,"inconclusive [activator, single point]"
20,CCCn1nnnc1NC(=O)COc1ccc(Cl)c(C)c1,"inconclusive [activator, single point]"
21,O=c1c2ccccc2nnn1CSc1ccc2ccccc2n1,"inconclusive [activator, single point]"
22,CCS(=O)(=O)c1c(S(=O)(=O)CC)c2cc(C(C)(C)C)ccn2c1C(=O)c1ccc(F)cc1,inactive
23,CCOC(=O)c1cnc2c(Cl)c(Cl)ccc2c1Nc1ccc(N(C)C)cc1,inactive

row,Structure (SMILES),Potency
1,COc1cc(/C=N/NC(=O)C2COc3ccccc3O2)ccc1O (stereo not given),"inconclusive [activator, single point]"
2,CC1(C(=O)NS(C)(=O)=O)CCN1C(=O)CC(c1ccccc1)c1ccccc1 (stereo not given),"inconclusive [activator, single point]"
3,COc1cc(OC)cc(C(=O)NC(=S)NNC(=O)Cc2cccs2)c1,"inconclusive [activator, single point]"
4,CCc1ccccc1NC(=O)CC(O)(C(=O)OC)C(F)(F)F (stereo not given),inactive
5,CCCC(=O)NC(C)c1nc2ccccc2[nH]1 (stereo not given),"inconclusive [activator, single point]"
6,CC(C)CN1C(=O)/C(=C/c2ccco2)NC1=S,inactive
7,CCOC(=O)c1ccc(N/C=C/C(=O)c2ccco2)cc1,"inconclusive [activator, partial curve]"
8,COc1ccccc1N1CCN(C(=O)C2c3ccccc3Oc3ccccc32)CC1,active: 20 µM
9,Cc1cc([N+](=O)[O-])ccc1NC(=O)CSc1nccn1C,"inconclusive [activator, single point]"
10,O=C(c1c(Cl)nc2sccn12)N1CCN(c2cccc(Cl)c2)CC1,inactive
11,Cc1ccc(O)c(Sc2cc(C)ccc2O)c1,"inconclusive [activator, partial curve]"
12,OC(c1cccc(Cl)c1)c1nc(-c2ccc3c(c2)OCO3)cs1 (stereo not given),"inconclusive [activator, single point]"
13,CC(C)N1CCN(c2ccncc2S(=O)(=O)N2CCN(C)CC2)CC1,"inconclusive [activator, single point]"
14,COc1ccc2ccccc2c1C(=O)/C=C\c1ccoc1,"inconclusive [activator, single point]"
15,c1ccc2c(c1)Cn1c-2nc2ccccc21,inactive
16,CCOC(=O)C1CCN(C(=O)C2CCCN(c3ncnc4c3nc3n4CCCCC3)C2)CC1 (stereo not given),"inconclusive [activator, single point]"
17,O=C(Nc1ccc(Br)cc1)c1ccc(Br)c(S(=O)(=O)NCc2ccccc2)c1,"inconclusive [activator, full curve, poor fit]"
18,Clc1nc(Cl)nc(NCCC2=CCCCC2)n1,inactive
19,CC(=O)c1c(C)n(-c2cccc(C)c2)c2ccc(OC(=O)COc3ccccc3)cc12,inactive
20,O=C(NCCCc1ccc(F)cc1)C1CCC(=O)N(CCCN2CCCC2=O)C1 (stereo not given),"inconclusive [activator, single point]"
21,CC1(C(=O)Nc2cccc(OC(F)(F)F)c2)Cc2c(-c3ccc4c(c3)OCO4)ccnc2O1 (stereo not given),active: 3.55 µM
22,CC(=O)Nc1ccc(S(=O)(=O)N2c3ccccc3C(C)=CC2(C)C)cc1,"inconclusive [activator, single point]"
